Reference: the supplement of paper PMC3334620
The full ranking holds about 33,000 sequences; the median of “E-score (-0.5 to 0.5)” is about -0.043, and the highest 2% start at about 0.37. Some of the results follow.

biological target: T1, Upc2 (UniProt Q12151); experiment: PBM E-score (8-mer binding enrichment) (E-score (-0.5 to 0.5)); higher = stronger / more preferred TF binding; most listed sequences are background and not binding sites; conditions: protein concentration: 200 nM; construct: GST-full length
T1 sequence: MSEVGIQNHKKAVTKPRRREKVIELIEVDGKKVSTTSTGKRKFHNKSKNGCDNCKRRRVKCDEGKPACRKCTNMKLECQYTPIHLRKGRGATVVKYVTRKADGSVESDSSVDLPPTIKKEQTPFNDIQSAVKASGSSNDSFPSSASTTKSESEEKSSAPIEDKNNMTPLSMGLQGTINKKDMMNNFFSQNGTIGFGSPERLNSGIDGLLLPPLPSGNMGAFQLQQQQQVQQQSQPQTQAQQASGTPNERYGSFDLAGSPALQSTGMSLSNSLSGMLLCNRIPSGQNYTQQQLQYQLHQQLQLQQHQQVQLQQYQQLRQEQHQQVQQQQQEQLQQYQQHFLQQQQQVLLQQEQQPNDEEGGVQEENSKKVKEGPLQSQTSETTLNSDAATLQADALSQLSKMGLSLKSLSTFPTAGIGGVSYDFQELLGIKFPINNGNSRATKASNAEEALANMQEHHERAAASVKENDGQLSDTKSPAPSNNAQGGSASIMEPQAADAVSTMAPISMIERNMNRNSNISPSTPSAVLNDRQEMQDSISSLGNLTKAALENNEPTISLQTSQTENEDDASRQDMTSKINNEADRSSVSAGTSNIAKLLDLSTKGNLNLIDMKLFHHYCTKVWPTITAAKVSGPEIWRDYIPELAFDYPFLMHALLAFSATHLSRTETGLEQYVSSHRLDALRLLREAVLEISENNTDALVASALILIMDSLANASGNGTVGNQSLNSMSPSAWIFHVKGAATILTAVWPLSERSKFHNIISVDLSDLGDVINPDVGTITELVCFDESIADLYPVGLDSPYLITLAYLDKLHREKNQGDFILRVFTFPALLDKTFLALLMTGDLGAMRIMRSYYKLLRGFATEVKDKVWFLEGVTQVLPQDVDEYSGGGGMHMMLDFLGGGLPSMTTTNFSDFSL
Experimental: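 Universal 'all 10-mer' protein binding microarrays (Agilent AMADID 015681) probed with GST-tagged S. cerevisiae TFs (full-length or DBD) made by in vitro transcription/translation (PURExpress), about 100-200 nM. Bound TF was detected with fluorescent anti-GST. Each ungapped 8-mer (which stands for itself and its reverse complement) is scored by the PBM enrichment score (E-score), a modified Wilcoxon-Mann-Whitney statistic from -0.5 to +0.5, computed with the Universal PBM Analysis Suite. Scale: above 0.35 generally sequence-specific binding.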

Sequence	PBM E-score
CGTCAGAG	-0.186
GTGTTACA	-0.0687
GACGACAA	0.0707
AAACGCTA	0.183
AGGCGATA	-0.0724
ACTGTGCT	-0.127
ACCCGAGA	0.101
AGACCCGG	-0.216
CGGTGAGA	-0.195
CAATACAC	0.0216
CACTGGCG	-0.104
GGGCCTAC	-0.135
ATGTCCCG	-0.17
GCACCACC	-0.319
CCTACAAA	-0.177
CCACTAAA	-0.00434
ACAACGCA	0.0502
AGTTGGAG	-0.146
CTGGTCTC	-0.23
GAACTGAC	-0.154
GCAACCAC	-0.227
ACCCATTG	-0.0491

Sequence	PBM E-score
ACGTTGCC	-0.0673
ATCCGTCG	0.242
TAATCCCA	-0.147
GATTGGAC	-0.219
CGCCTCAG	-0.17
ATTTGATC	-0.0896
AATACCCC	-0.221
CCTAGAAC	0.0471
CCTATCTA	-0.0968
ATGGAATA	-0.0124
AAAACCAG	-0.0476
CAACGCGC	0.0935
AGCAACAA	-0.0972
ACGGTGAT	0.0893
ATATTGCG	0.0841
ACTCATTA	0.0785
ACAGAGCA	0.0385
GTCCTCGA	-0.123
AATATCTC	0.0702
CATCGTGG	-0.0907
ACCGTGGG	-0.154
TGCAGTAA	-0.228

Sequence	PBM E-score
GTCCGGAA	-0.11
ACTAGGCA	-0.197
ACAGAGAT	0.00119
CACGCACG	-0.226
ATTGGGTG	-0.114
ATTTTGCC	-0.194
GACACCAC	-0.159
AGATAAAT	0.0119
ACGGCAGC	0.13
CGTAGTGA	-0.0166
ACATACTC	0.0912
AATGTAGC	-0.0689
AGGTCGCA	0.13
AGGAGGGA	-0.278
GTTTCAAA	0.0965
ACTGCGTG	-0.0214
GCAATCTA	-0.0928
GCAGCTCA	-0.183
CAGCGATC	0.149
TGATAACA	0.115
GTCACTCA	-0.183
CAGGCGGA	-0.00607

Sequence	PBM E-score
TAAAGAGA	-0.0259
ATCACTAC	-0.153
TGTCTTAA	-0.141
AGTTCGGA	-0.0507
ATTTGCAA	0.0573
GGAACGCC	0.013
ACGGCCTG	0.0204
CCACCTGA	-0.171
AACACCGC	-0.0137
AAAATCAA	-0.0608
AATGCGTC	-0.168
CGGCTACC	-0.104
CTGGCTCC	-0.252
AGAGCCTC	-0.0518
ACGGGAAG	0.108
GTTCCTTA	0.171
CAGAGTAA	-0.178
CAGAGATA	-0.0881
AACTGTAT	0.0377
CCTCATAG	-0.226
